The results in this text go back to the RNAGym collection of RNA variant scans (doi:10.1093/nar/gkz1192).

Read counts are not given, so values of variants with three or more changes are uncertain.

B1: CPEB3 Ribozyme (parent)
chain: UAACAGGGGGCCACAGCAGAAGCGUUCACGUCGCAGCCCCUGUCAGAUUCUGGUGAAUCUGCGAAUUCUGCUGUAUAUCUC

In this series the parent is B1. In words: self-cleavage, relative activity (ratio to wild type); higher = more cleavage; in vitro, sequencing. An outline of the steps: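 Relative activity compares each variant's cleaved/total read fraction with that of the unmutated ribozyme. To get these fractions, barcoded CPEB3 ribozyme libraries from rounds of error-prone PCR were transcribed with T7 RNA polymerase for 5 hours at 37°C and then given 15 min of DNase I treatment before EDTA was added. The RNAs were reverse transcribed with template switching and sequenced on Illumina, and DNA sequencing linked barcodes to variants. A minimum of 5 reads applied, and three batches were averaged.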
For the variant U25C U51A U76A, the self-cleavage was 0.15.
For U25C U60A A65G the value was 0.23; for U25C U51A U54A A64G, 0.22.
For U25G A47G U51C U58C, the self-cleavage stood at 0.32.
For U25C U51C U69C U78C the value was 0.12.
Take U25G U41G U48C U54C A64G U80C: the self-cleavage was 0.
For U26A A47G A75G the value was 0.68.
For the variant U26A C32U U74A, the self-cleavage was 0.25.
The figure for U25C U51C U69C U72C is 0.08; for U25G U26A A64U A65G U80A it is 0.08; for U26A A64U U80C it is 0.36.
Regarding U25C U51G U72C, the self-cleavage stood at 0.21.
With U26A A64G U69C, the self-cleavage is 0.26.
The figure for U25C U76A A77G U80A is 0.4.
In the case of U25G U51A U74C U76A, the self-cleavage was found to be 0.56.
Consider U26A A28G U72C, for which the self-cleavage was found to be 0.27.
In the case of U26A A35U U41A A47U U60C U66C, the self-cleavage stood at 0.14.
The figure for U25G U49C A56G is 0.43; for U26A A35U U69C it is 0.28.
For U25C U69C A75G, the self-cleavage was determined as 0.13.
For U26A G52A C59U the value was 0.99; for U25G A45U U49A U58A U66C, 0.27.
U26A A45G U80C: the self-cleavage was 0.76.
The figure for U26A A28C A35G A57C is 0.35; for U26A A45U U48C U54A U58C U66C U72G it is 0.07; for U26A A28G U49C U80C it is 0.05.
The figure for U26A A28U U43C C59U is 0.09; for U26A A47G C62U it is 0.1; for U26A A28U G33A it is 0.17.
The figure for U26A A28U U54G U58C A65G U67A A77G is 0.09.
For U25C U51A G63A, the self-cleavage was 0.26.
For U26A C40U A45G the value was 0.45; for U26A A45U U78A U80C, 0.29; for U26A G46U U60C C71U, 0.09.
For U25C U67C U80C the value was 0.13.
For U26A A47G U49A G53U G61C G70U A75U the value was 0.06.
Consider U25C U72G U80C, for which the self-cleavage amounted to 0.08.
For U26A A45G A56G A57U U67C the value was 0.1; for U25C U54A U60A U72G U80C, 0.21; for U25C U54C A56C G61A, 0.07.
The figure for U25C U51A U80A is 0.08; for U25C U51A U80C it is 0.45; for U25C U51A C79U it is 0.23.
For U26A U31C A45G U66C the value was 0.2; for U26A C27A A75G U80C, 0.15.
Consider U26A A45G U69C U72C, for which the self-cleavage was found to be 0.21.
The figure for U26A A57G C62U U76C U78C is 0.14.
The figure for U26A U31C U66G is 0.18; for U26A U31C U66C it is 0.17.
The figure for U25G C32G A56U A57U U80C is 0.24; for U25C U60A U72A it is 0.05; for U26A A57U U60A U69C it is 0.2.
Regarding U26A C34G U58C, the self-cleavage came out at 0.09.
For U25C U51C U54A U74C A75G the value was 0.08; for U26A U31A A35G A47C U69A, 0.1; for U26A U31C U78C, 0.65.
The figure for U26A U41A U60A G73A U80A is 0.07.
For U25C U60C U80G the value was 0.49; for U25C U60C U80C, 0.27; for U25G U51C A56U U60A U69C A75G U80C, 0.11.
Take U26A U31A G52C A57U: the self-cleavage is 0.16.
The figure for U26A A47G U51G A57G U58C is 0.97; for U26A A56G U74A it is 0.86.
On to U26A A35U U58A, for which the self-cleavage was determined as 0.41.
The figure for U25G U43C U48C is 0.28; for U26A A28U U48A U60A G63A U69C it is 0.06.
For U25C U54C U69A, the self-cleavage was found to be 0.11.
The figure for U26A U31G A45G C50U U54C A56G A77G is 0.08; for U26A A35G U43C G70A U72C U74C it is 0.16; for U26A A28U U49A U60C it is 0.93.
The figure for U26A A64G U72C is 0.61.
For U26A U31C U43C G46U U66A U80C the value was 0.12; for U25C U60A U78C C81A, 0.21.
With U25C U66A U78C, the self-cleavage worked out at 0.32.
The figure for U25G C27U G30A G33C C38U A57C A65U is 0.04; for U26A G63A A77G it is 0.69.
U25G U49C U74A: the self-cleavage was found to be 0.05.
Consider U26A U31C G46U, for which the self-cleavage turned out to be 0.16.
In the case of U26A C27U U58A U76A, the self-cleavage is 0.17.
For U26A C34U U51C U74A the value was 0.32; for U25C U51A U54C U78C, 0.17; for U25G U26A U72C, 0.38.
The figure for U25C U49C U51A U67C U72C is 0.18; for U25C U58C U80C it is 0.55.
The figure for U25C U69A U72C is 0.33; for U26A A64G U67C it is 0.19; for U25G A65G U72A it is 0.08.
Turning to U26A G33U U41A U43A, the self-cleavage worked out at 0.29.
Turning to U25G A56G U66C A77G, the self-cleavage worked out at 0.07.
For U26A A35U U41A G55A U60C the value was 0.07; for U26A G30U G52A, 0.07.
Turning to U25C U67C U76A, the self-cleavage amounted to 0.06.
Take U25G U31C U74A: the self-cleavage turned out to be 0.34.
The figure for U25G G33A A35G U72C G73C U78C is 0.13.
For U26A C39U U43A the value was 0.24.
In the case of U26A A45G U66C A77U U80C, the self-cleavage is 0.21.
As for U26A G33A A45C, the self-cleavage turned out to be 0.09.
With U26A A57G U80C, the self-cleavage is 0.93.
For U26A A28G U43C U78G the value was 0.14.
On to U26A U31G C44A, for which the self-cleavage came out at 0.33.
For U25C U54G C62A the value was 0.17; for U25C U66A U69C, 0.22.
For U26A A35G A56U A65G the value was 0.75.
With U26A A35G A47G U58A, the self-cleavage came out at 0.62.
For U25G G33A U41C the value was 0.09; for U25C U60A U74A, 0.27; for U25C U66A U67C, 0.22.
For U26A A35U A64G U67A U69C the value was 0.05; for U26A C32U G36A U67A, 0.07; for U25C U51A U78C, 0.09.
Turning to U25C U58C U74C, the self-cleavage was 0.44.
The figure for U25C U49C U54C A56G U76C is 0.16; for U26A A57G U66C it is 0.38; for U25C U60A U69C it is 0.1.
The figure for U25C U58C C68A U74G is 0.31; for U26A U31A U41G U43C G55C A57G it is 0.09.
For U25C U51G U66C the value was 0.07.
On to U26A C32A C39G U41C U54A U66C, for which the self-cleavage is 0.08.
For U26A C27U U41A A47G, the self-cleavage amounted to 0.1.
The figure for U26A A35G U69C is 0.97.
Take U26A A35G U69G: the self-cleavage amounted to 1.18.
The figure for U25C U69C A77U is 0.13.
As for U26A C27U A45G A47U U60G U67C U80A, the self-cleavage is 0.12.
Consider U26A G36A A45G U67A U78C, for which the self-cleavage turned out to be 0.05.
Take U25G C27U U31A: the self-cleavage is 0.27.
The figure for U26A G61A U80C is 0.89; for U25C U49C U51A U58C it is 0.18.
For U26A A47G U51C U74A the value was 1.2.
The figure for U25C U58A U80C is 0.09; for U26A U41C A56U it is 0.42; for U26A U41C A56G it is 0.54.
Consider U26A C29G U51C A56G, for which the self-cleavage was found to be 0.2.
For U26A C27G U41A the value was 0.21; for U26A U31C U43A A57U, 0.08; for U25C U51C U54A, 0.15.
The figure for U25G A28G A35U is 0.26; for U26A A28C C44A U48C G52U it is 0.11; for U26A G33A U51A it is 0.32.
For U25C U51C U69C the value was 0.2; for U25G C29G U66C U80C, 0.1; for U26A A28U U60A U67A, 0.16.
In the case of U25C U58C G63A U74A U80C, the self-cleavage stood at 0.17.
The figure for U26A A45G U54A U72C is 0.84; for U25C U58A U67C it is 0.13; for U26A A45G A56U U74A it is 0.34.
The figure for U25C U58C A65U U78C is 0.1; for U26A C50U G53U A56U it is 0.21; for U26A U31C C62U C68A it is 0.12.
For U25C U58C U67C the value was 0.14.
For the variant U26A A28U U43A U69C, the self-cleavage came out at 0.07.
The figure for U26A G30U C34U A45C U58A A75U is 0.09.
For U25C U60C A64G U78C the value was 0.27; for U26A A28G A45G U66C, 0.14.
For U26A A45U U67C the value was 0.16.
As for U26A A45G G46A U58A U69C U80G, the self-cleavage is 0.05.
The figure for U26A C34A U48C U67A is 0.17; for U25C U54G A56G it is 0.09.
For U26A A28U U54C U66C U72C the value was 0.16; for U26A A45G A64U, 0.4; for U26A G36A U51C A75U, 0.14.
U26A A56U U72C: the self-cleavage turned out to be 0.43.
The figure for U26A U31C G46U U76A is 0.06; for U26A A28G U31C A45G A64U it is 0.22; for U25G U26A A77G U80C it is 0.12.
With U25C U51C U67C, the self-cleavage worked out at 0.13.
For U25C U54G U76C the value was 0.41; for U26A A28G C40A A56G U60A, 0.05.
